The source of these data is PubChem BioAssay AID488969 (Vanderbilt High Throughput Screening Facility, 2010).

Structures are written as SMILES. In all, about 110,000 compounds were measured (“z-score”: median about -0.1, highest 2% from about 2 on). Some of the results follow.

The target of this experiment is Metabotropic glutamate receptor 8 (Rattus norvegicus) (UniProt P70579). Put plainly: mGluR8 Gi/Go-coupled signaling modulation – cell-based, rat, thallium flux, HTS, primary screen (AID 488969). The following applies: HEK293 rat mGluR8, GIRK (G protein-gated inwardly rectifying potassium channel) thallium flux, FluoZin2; at 10 µM; stronger effect = higher value; submaximal glutamate (EC20) added with thallium.
Sequence of UniProt P70579 (P70579 whole entry, looked up): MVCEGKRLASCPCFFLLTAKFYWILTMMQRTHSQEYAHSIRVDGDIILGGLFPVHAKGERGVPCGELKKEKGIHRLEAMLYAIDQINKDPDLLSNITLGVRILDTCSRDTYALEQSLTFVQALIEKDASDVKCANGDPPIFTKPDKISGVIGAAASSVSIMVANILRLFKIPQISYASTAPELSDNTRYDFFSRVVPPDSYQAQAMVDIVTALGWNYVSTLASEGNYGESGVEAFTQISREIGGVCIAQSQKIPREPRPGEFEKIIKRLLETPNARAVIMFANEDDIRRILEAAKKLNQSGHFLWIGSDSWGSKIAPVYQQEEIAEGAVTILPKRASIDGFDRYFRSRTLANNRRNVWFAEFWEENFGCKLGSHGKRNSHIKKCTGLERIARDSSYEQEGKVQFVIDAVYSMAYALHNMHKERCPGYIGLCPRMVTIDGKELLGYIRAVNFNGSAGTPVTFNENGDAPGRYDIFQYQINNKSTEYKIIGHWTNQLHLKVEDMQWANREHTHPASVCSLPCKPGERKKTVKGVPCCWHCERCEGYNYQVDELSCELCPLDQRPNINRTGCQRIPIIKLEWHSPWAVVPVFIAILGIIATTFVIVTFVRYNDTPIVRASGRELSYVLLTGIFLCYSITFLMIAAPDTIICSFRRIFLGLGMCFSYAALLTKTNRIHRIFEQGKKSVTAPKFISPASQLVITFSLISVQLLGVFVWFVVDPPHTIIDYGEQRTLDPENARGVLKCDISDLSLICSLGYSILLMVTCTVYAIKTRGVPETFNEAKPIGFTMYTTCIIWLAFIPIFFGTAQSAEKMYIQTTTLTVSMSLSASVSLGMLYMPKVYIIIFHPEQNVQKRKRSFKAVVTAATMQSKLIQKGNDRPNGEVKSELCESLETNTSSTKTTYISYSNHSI
On to `CCOC(=O)CSc1[nH]c(=O)cc(C)c1C#N`, for which the z-score was -0.162.

`Cc1nn(-c2ccccc2)c(=S)n1-c1ccccc1` came in with a z-score of 0.514.

In turn, `Cc1ccc(NC(=S)NC2CC3CCCC(C2)N3Cc2cccs2)cc1` (stereo unspecified) registered a z-score of -0.103.

With `O=C(NC(=S)Nc1ccccc1N1CCOCC1)c1ccc(-c2cc(Cl)ccc2Cl)o1`, the z-score worked out at 0.0698.

`COc1c(F)c(F)c(C(=O)Nc2ccc3oc(-c4ccncc4)nc3c2)c(F)c1F` gave a z-score of -0.29.

Turning to `O=C(C(=O)N1CCc2ccccc2C1)c1cn(CC(=O)N2CCCCC2)c2ccccc12`, the z-score is -0.582.

On to `O=C(COC(=O)CC12CC3CC(CC(Br)(C3)C1)C2)NC(=O)NCc1ccco1`, for which the z-score stood at 0.0373.

On to `CCOC(=O)c1ccc2nc(NC(NC(C)=O)(C(=O)OC)C(F)(F)F)sc2c1` (stereo unspecified), for which the z-score was -1.45.

Turning to `O=c1c2cnn(-c3ccccc3)c2ncn1Cc1ccccc1`, the z-score was -0.353.

Consider `Cc1ccccc1N1CN(Cc2ccco2)CNC1=S`, for which the z-score is -0.154.

Take `COc1ccc2cc(C)c3nnc(SCC(=O)Nc4nc(-c5ccccc5)cs4)n3c2c1`: the z-score was -0.183.

In the case of `CCn1cc(NC(=O)Nc2ccc(OC)c(OC)c2)c(C(N)=O)n1`, the z-score turned out to be 0.576.

Turning to `Cc1ccc(NC(=O)N2CCCC2C(=O)NCc2cccs2)cc1` (stereo unspecified), the z-score is 0.0555.

As to `Cc1ccc(CNC(=O)c2coc(=O)c3ccccc23)o1`, the z-score was -0.0847.

Turning to `N#Cc1cc(Oc2ccccc2)c(-n2nnc3ccccc32)cc1C#N`, the z-score was 0.266.

Consider `CCOc1ccccc1C(=O)n1nc(C)cc1C`, for which the z-score came to 0.292.

As for `COc1ccc(C(=O)N2CCC(C(=O)Nc3ccc4c(c3)OCCO4)CC2)cc1`, the z-score was -0.825.

`COc1ccccc1C(=O)Nc1ccc(N2CCN(S(C)(=O)=O)CC2)cc1` registered a z-score of -0.118.

`CCOC(=O)C1CCCN(c2c(Nc3cc(C)cc(C)c3)c(=O)c2=O)C1` (stereo unspecified) returned a z-score of 0.531.

`O=C(O)C1C2CCC(C2)C1C(=O)Nc1nc2ccccc2s1` (stereo unspecified): the z-score was 0.745.

Molecule `COCc1cc(C(C)=O)ccc1OC` had a z-score of -0.203.

Turning to `COc1cccc(-c2nc(-c3ccccc3)no2)c1`, the z-score worked out at 0.14.

The molecule `Cn1cc(C(=O)NCC2COc3ccccc3O2)c(=O)c2cc(S(=O)(=O)N3CCCCC3)ccc21` (stereo unspecified) displayed a z-score of 0.0561.

The molecule `Cc1cc(C)c(S(=O)(=O)N(C)CC(=O)NC2CCCC2)c(C)c1` gave a z-score of -0.387.

As to `CC(C)NC(=O)CC(=O)N/N=C/c1ccccc1F`, the z-score turned out to be 0.0011.

In turn, `C/C(CCc1oc2c(Br)cc(Br)cc2c1-c1ccc(C)o1)=N\O` yielded a z-score of 0.0899.

In turn, `C/C(=N/NC(=O)CNC(=O)Cc1ccccc1)c1ccco1` gave a z-score of 0.0499.

With `CCCc1cc(=O)[nH]c(SCC(=O)N(Cc2ccccc2)C(C)C)n1`, the z-score was -0.715.

Regarding `Cc1cccc(C)c1OCC(=O)N1CC2(C)CC1CC(C)(C)C2` (stereo unspecified), the z-score turned out to be 0.014.

`O=C1N/C(=C/c2cccn2-c2ccc(F)cc2)C(=O)N1Cc1ccccc1` came in with a z-score of -0.137.

As to `CN(C)c1ccc(NC(=O)CSc2nc3ccccc3c(=O)n2C2CCCCC2)cc1`, the z-score was determined as 1.39.
